Test results as given in publication PMC4336329 (PLoS ONE, 2015).
About 2,200 (0.71%) of roughly 310,000 compounds showed an effect of 50% or more. Effects have a minus sign here. The list shows a part of the results.

Target: human ether-à-go-go-related gene (hERG) potassium channel (human, UniProt Q12809)
Test: primary screen, population patch clamp on CHO cells stably expressing hERG

human ether-à-go-go-related gene (hERG) potassium channel, sequence (Q12809 whole entry, looked up): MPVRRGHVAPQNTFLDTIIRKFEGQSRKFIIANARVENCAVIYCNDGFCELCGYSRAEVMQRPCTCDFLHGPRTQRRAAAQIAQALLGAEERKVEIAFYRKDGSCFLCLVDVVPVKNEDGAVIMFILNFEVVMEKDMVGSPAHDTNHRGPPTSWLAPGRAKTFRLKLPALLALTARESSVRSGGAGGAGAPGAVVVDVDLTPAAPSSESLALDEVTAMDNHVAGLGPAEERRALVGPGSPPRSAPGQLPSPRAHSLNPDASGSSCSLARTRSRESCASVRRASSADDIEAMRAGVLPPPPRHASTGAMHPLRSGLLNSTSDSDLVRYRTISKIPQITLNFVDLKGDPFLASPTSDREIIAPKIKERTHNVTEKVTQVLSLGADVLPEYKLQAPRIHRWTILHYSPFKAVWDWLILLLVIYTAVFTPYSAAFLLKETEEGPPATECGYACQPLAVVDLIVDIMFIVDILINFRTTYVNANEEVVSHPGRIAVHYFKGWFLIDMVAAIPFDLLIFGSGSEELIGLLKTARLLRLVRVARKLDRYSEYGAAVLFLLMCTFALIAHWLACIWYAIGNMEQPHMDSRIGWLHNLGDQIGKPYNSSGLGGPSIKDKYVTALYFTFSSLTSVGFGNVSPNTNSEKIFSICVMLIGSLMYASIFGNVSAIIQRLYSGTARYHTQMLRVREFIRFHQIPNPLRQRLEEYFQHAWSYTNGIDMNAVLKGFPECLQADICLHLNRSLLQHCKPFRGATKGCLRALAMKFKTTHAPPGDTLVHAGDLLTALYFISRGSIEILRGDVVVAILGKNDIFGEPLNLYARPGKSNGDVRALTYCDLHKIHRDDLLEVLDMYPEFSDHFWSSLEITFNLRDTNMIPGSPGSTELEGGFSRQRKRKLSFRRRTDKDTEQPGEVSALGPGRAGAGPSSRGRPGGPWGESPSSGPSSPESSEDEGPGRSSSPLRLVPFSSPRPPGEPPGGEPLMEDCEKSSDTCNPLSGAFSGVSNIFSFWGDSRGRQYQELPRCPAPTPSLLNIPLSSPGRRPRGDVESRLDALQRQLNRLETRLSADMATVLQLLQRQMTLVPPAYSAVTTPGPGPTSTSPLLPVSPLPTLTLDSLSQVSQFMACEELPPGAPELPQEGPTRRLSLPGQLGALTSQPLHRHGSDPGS

| Structure (SMILES) | hERG current change (%, negative = inhibition) at 1uM [%] |
| --- | --- |
| COc1ccc(CCNCc2ccccn2)cc1OC | 2.18 |
| COc1ccccc1CNC(=O)CSc1nc2nc(C)cc(C)n2n1 | 0.145 |
| COc1cc(C(=O)NC2CCCc3ccccc32)ccc1OCC(=O)Nc1ccc(F)cc1 (stereo not drawn) | 13.1 |
| CCN(CC(=O)Nc1ccc2c(c1)OCCO2)C(=O)c1cc(=O)[nH]c2ccccc12 | 14 |
| N#C/C(=C\c1c(Oc2ccc(Cl)cc2)nc2ccccn2c1=O)C(=O)NC1CCS(=O)(=O)C1 (stereo not drawn) | 13.4 |
| O=C(CCc1nnc2ccc(NCc3ccccc3Cl)nn12)N1CCC2(CC1)OCCO2 | -3.06 |
| CC(C)CC1COC(=O)N1 (stereo not drawn) | 15.6 |
| Cc1nc(CCN2C(=O)c3ccccc3C2=O)cs1 | 2.07 |
| O=C1CC(Nc2ccccc2)C(=O)N1c1ccc(N2CCOCC2)cc1 (stereo not drawn) | 9.29 |
| CCN(CC)c1ccc(C2C3CCCCC3(O)CCN2CC(=O)Nc2ccccc2)cc1 (stereo not drawn) | 3.26 |
| CC(C)Cc1nc(S(=O)(=O)c2ccc(Cl)cc2)c(N2CCOCC2)o1 | 5.42 |
| CCc1nnc(NC(=O)c2sc3nc4c(cc3c2N)CCCCC4)s1 | 14.8 |
| CSc1ncccc1C(=O)OCC(=O)c1ccccc1 | 21.2 |
| CCc1cc(C(=O)N2CCN(S(=O)(=O)c3ccc(Cl)cc3)CC2)sc1C | 8.41 |
| COc1ccc(C(=O)COC(=O)CCn2nnc(-c3cccs3)n2)cc1 | 7.07 |
| O=C1CC(Nc2ccc(N3CCOCC3)cc2)C(=O)N1c1ccccc1F (stereo not drawn) | 3.19 |
| COCCCn1c(-c2cccc(Cl)c2)nc2c1c(=O)[nH]c(=O)n2Cc1ccccc1 | 9.37 |
| O=C(/C=C/c1ccccc1Cl)NCCc1ccccc1 | -12.9 |
| COc1ccccc1NC(=O)C1CCCN(c2nc(C)cc(C)n2)C1 (stereo not drawn) | 1.4 |
| CCn1c(=O)c(C(C)=O)c(O)c2ccccc21 | 2.38 |
| Cc1cc(C)c(OCC(=O)OCC(=O)N2c3ccccc3CC2C)c(C)c1 (stereo not drawn) | 19.8 |
| CC(OC(=O)C1CCN(S(=O)(=O)c2ccc(Cl)cc2)CC1)C(=O)N1CCc2ccccc21 (stereo not drawn) | 2.26 |
| Cc1ccc(-c2n[nH]c(=O)c3ccccc23)cc1S(N)(=O)=O | 13.9 |

| Structure (SMILES) | hERG current change (%, negative = inhibition) at 1uM [%] |
| --- | --- |
| Cc1cc(N2CC(C)OC(C)C2)nc2ccccc12 (stereo not drawn) | 2.03 |
| Fc1ccc(-c2cnn3c(-c4ccncc4)ccnc23)cc1 | 11.8 |
| O=C(N/N=C/c1coc2ccccc2c1=O)c1ccc(Cl)cc1 | 17.5 |
| O=c1oc2c(-c3ccc([N+](=O)[O-])cc3)cc(O)cc2s1 | 10.7 |
| CCOc1ccc(S(=O)(=O)NCCC(=O)NCCOc2ccccc2OC)cc1 | 3.66 |
| CC(Sc1nnnn1-c1ccc(O)cc1)C(=O)NNC(=O)c1ccc(F)cc1 (stereo not drawn) | 8.48 |
| CC(C)c1nnc(NC(=O)c2ccc3ccccc3c2)s1 | 6.94 |
| O=C(NN1C(=O)c2ccccc2NC1c1ccc([N+](=O)[O-])o1)c1ccc(Br)cc1 (stereo not drawn) | -27.2 |
| COc1ccc(N2C(=O)CSC2c2ccc([N+](=O)[O-])cc2)cc1 (stereo not drawn) | -12.2 |
| Cc1cccn2c(CNCCCn3ncc4ccccc43)c(C(=O)N3CCCCC3)nc12 | 11.9 |
| CC1=NN(c2ccc(C)cc2)C(=O)/C1=C\c1ccc(Br)s1 | 11.5 |
| Cc1cc(N2CCC(C)CC2)nc(NCc2ccccc2)n1 | 3.24 |
| CCCn1c(=O)n(C)c(=O)c2c(SCC(=O)NCC(c3ccccc3)N(C)C)nc(CC(C)C)nc21 (stereo not drawn) | -5.52 |
| NC(=O)C1CCN(CC(=O)Nc2ccc(S(=O)(=O)N3CCOCC3)cc2)CC1 | 19.5 |
| NNC(=S)NCc1ccc2c(c1)OCO2 | 14.7 |
| CC(N1CCOC1=O)S(=O)(=O)c1ccccc1 (stereo not drawn) | 2.12 |
| Cc1ccc(C2(C(F)(F)F)N=C3Sc4cc(C)cc(C)c4N3C(=O)N2)cc1 (stereo not drawn) | 4.33 |
| C/C(=N/O)c1ccc(N2C(=O)C3C4C=CC(C3C2=O)C2C3C(=O)N(c5ccc(/C(C)=N/O)cc5)C(=O)C3C42)cc1 (stereo not drawn) | 3.94 |
| Cc1cccc(Oc2nc(-c3ccccc3)cc(C)c2S(C)(=O)=O)c1C | 3.44 |
| Cc1c(-c2cccc(Cl)c2)nc2ccccc2c1C(=O)OCC(=O)N(C)C1CCS(=O)(=O)C1 (stereo not drawn) | 4.41 |
| O=C(NCCS(=O)(=O)NC1CCCCC1)c1ccc2c(c1)OCO2 | 2.98 |
| CCCCP(=O)(CCCC)c1ccccc1C(=O)O | 6.45 |
| CCn1cc(C(=O)N2CCN(c3ccc([N+](=O)[O-])cc3)CC2)c(=O)c2ccc(C)nc21 | -42.1 |

| Structure (SMILES) | hERG current change (%, negative = inhibition) at 1uM [%] |
| --- | --- |
| Cc1cccc(NC(=O)CCC(=O)N/N=C/c2ccc(O)cc2O)c1 | 12.8 |
| O=C(CSc1nccc(=O)[nH]1)NCc1ccco1 | 9.54 |
| O=C1CN(c2nc(-c3ccccc3)c3cc(Cl)ccc3n2)c2ccccc2N1 | 14.6 |
| O=C(O)c1ccccc1S(=O)(=O)CC(=O)N1CCCCC1 | 14.3 |
| C=CCNC(=O)c1sc(=S)n(-c2ccc(C(=O)OCC)cc2)c1N | 2.24 |
| COc1ccc(Cn2c(O)c(C=Nc3ccccc3C(=O)O)c3ccccc3c2=O)cc1 | 8.05 |
| COc1ccc(CNc2n[nH]c(NCc3ccc(OC)c(OC)c3)n2)cc1OC | -4.9 |
| CCn1c(=O)cc(OCC(=O)NCc2ccc(C)o2)c2ccccc21 | -2.75 |
| O=C(CN1CCOCC1)N1c2ccccc2Sc2ccccc21 | 11.6 |
| CCN(c1ccccc1)S(=O)(=O)c1ccc2[nH]cc(C(=O)NCCOC)c(=O)c2c1 | 11.1 |
| CCOC(=O)c1c(S(=O)(=O)N2c3ccccc3CC2C)c(C)n(C)c1C (stereo not drawn) | 16.4 |
| CC(=O)c1cn(CCC(C)C)c(=O)[nH]c1=O | -3.77 |
| CCc1cc(C(=O)N2CCN(S(=O)(=O)c3ccccc3F)CC2)sc1C | 3.45 |
| COc1ccc(C(=O)CSc2n[nH]c(C)n2)cc1[N+](=O)[O-] | 13.9 |
| CCN(CC)CCNC(=O)c1ccc(NC(=O)COc2ccc3c(c2)CCC3)cc1 | -0.13 |
| COCCSc1ccccc1C(=O)NCCc1ccccc1 | 4.68 |
| COc1ccc2c(c1)OC(O)(C(F)(F)F)CC2=O (stereo not drawn) | 0.384 |
| O=C1Cc2cccc3cccc1c23 | 14.2 |
| Cc1sc2ncnc(NCC(c3ccccc3)N(C)C)c2c1C (stereo not drawn) | 3.88 |
| Cc1ccc(N2CC(O)(c3cccs3)[N+]3=C2CCCC3)cc1.[Br-] (stereo not drawn) | 0.544 |
| S=c1nc[nH]c2c1cnn2-c1ccccc1 | 14 |
| COc1ccc(CNC(=S)NCc2ccc(OC(C)C)cc2)cc1 | 1.35 |
| COc1ccc(C(CC(=O)N2CCCC2)C(C)C)cc1 (stereo not drawn) | 6.31 |

| Structure (SMILES) | hERG current change (%, negative = inhibition) at 1uM [%] |
| --- | --- |
| COc1cc2[nH]c(=S)n(Cc3ccco3)c(=O)c2cc1OC | -1.66 |
| CCCCCCCN(C(=O)CCl)c1cccc(C)c1 | 1.25 |
| Nc1nc(NCc2ccccc2)nc(NCCO)c1[N+](=O)[O-] | 8.3 |
| O=C(c1ccco1)n1c(=S)nc2ccccn21 | 24.1 |
| C[C@H](NC(=O)C(c1ccccc1)c1ccccc1)c1ccccc1 | 5.44 |
| Cc1ccc(/C=N/NC(=O)c2ccc3ccccc3c2)s1 | 14.3 |
| CCN(CC)C1CCS(=O)(=O)C1.Cl (stereo not drawn) | 7.34 |
| COCCNC(=O)Cn1nc(C(F)(F)F)c(Cl)c1C | -3.69 |
| Cc1ccsc1-c1nc(C(N)=O)c2[nH]c(=O)n(-c3ccc(Cl)cc3)c2n1 | 9.02 |
| Cl.N=C(N)N1CCc2ccccc21 | 5.53 |
| CCn1ccnc1CN(C)Cc1cn(-c2ccccc2)nc1-c1ccc(OC)cc1F | 0.111 |
| CC(C)=C1C2CCC1C1C(=O)N(c3nc(-c4ccccc4)c(C)s3)C(=O)C21 (stereo not drawn) | 5.76 |
| COCCNS(=O)(=O)c1ccc2c3c(cccc13)C(=O)N2C | 13.8 |
| COc1ccccc1N1CCN(C(=O)CN2C(=O)c3cccc4cccc(c34)C2=O)CC1 | 8.79 |
| CN(CC(=O)Nc1ccc(Cl)cc1)C(=O)c1cccc(S(=O)(=O)NCc2ccccc2)c1 | 12.7 |
| CCCOc1ccc(-c2csc(NC(=O)CN3C(=O)CCC3=O)n2)cc1 | 10.9 |
| N=C1S/C(=C\c2ccco2)C(=O)N1c1ccc2c(c1)OCO2 | 13 |
| CN(C)S(=O)(=O)Oc1cccc(C(=O)Nc2ccc(Cl)cc2)c1 | 10.1 |
| c1ccc2nc(SCc3cn4ccccc4n3)cnc2c1 | -4.84 |
| O=C(c1ccc(CNS(=O)(=O)c2ccc(Br)cc2)cc1)N1CCCC1 | 6.66 |
| O=C1Nc2cc(C(=O)N3CCN(Cc4ccccc4)CC3)ccc2SC1N1CCOCC1 (stereo not drawn) | 1.53 |
